Experimental data published in PubChem BioAssay AID624296 (National Center for Advancing Translational Sciences (NCATS), 2012).
The campaign covered roughly 350,000 compounds. About 9,900 (2.8%) were called active. Inconclusive results, whose numbers are uncertain, are shown with a selection of clear calls. Calls come from the whole dose curve; as a rule, active = well fitted activation curve with a large enough effect; inconclusive = small, poorly fitted or top-dose-only effect; inactive = no such curve, though single readings can be large or run the other way. No potency is given beside an inconclusive call; the fits are too rough.

Assay: A quantitative high throughput screen for small molecules that induce DNA re-replication in MCF 10a normal breast cells. For activity, positive = re-replication: % of control where 0% means no effect. Note: nearly all actives have a fitted effect of over 50% in size.
Conditions: MCF 10A DNA re-replication, Hoechst nuclear intensity, 48 h; activity, positive = re-replication: at 46.1 µM (top of the series)
Potency is the fitted concentration of half-maximal effect; tags give direction and shape of the fitted curve.

SMILES | Potency | activity, positive = re-replication
COCCCN1C(=O)/C(=C\c2ccc3c(c2)OCO3)C(C(=O)OC)=C1C | inconclusive [activator, single point] | 
O=C(CN(C(=O)CCC(=O)Nc1nccs1)c1cccc(F)c1)NCc1ccc(F)cc1 | inconclusive [activator, single point] | 
O=C(COC(=O)Cc1cccc(F)c1)NC(=O)NC1CCCCC1 | inactive | 
Cc1ccc(S(=O)(=O)c2cnc(-c3ccccc3)nc2N2CCN(C)CC2)cc1 | inconclusive [activator, partial curve] | 
O=C(/C=C/c1cccs1)NNC(=O)c1cccc([N+](=O)[O-])c1 | inactive | 
COc1ccc(-c2nc(CS(=O)(=O)CC(=O)NCCc3cc(OC)ccc3OC)c(C)o2)cc1 | inactive | 
Cc1cc(N2CCN(C)CC2)nc2ccc(NC(=S)N3CCN(c4ccccn4)CC3)cc12 | inactive | 
CC(C)c1nc2oc3c(NCC4CCCO4)ncnc3c2c2c1CCC2 (centres undefined) | inconclusive [activator, full curve] | 
Cc1cccc(NC(=O)COc2coc(CN3CCN(c4ccccc4)CC3)cc2=O)c1 | inactive | 
CC(=O)c1cc(NC(=O)c2ccccc2)c(=O)oc1C | inconclusive [activator, single point] | 
N#CCCn1cc(C(=O)O)c(-c2cccs2)n1 | inactive | 
CCOc1ccc(-c2cc(C(=O)NCCCN3CCN(CC)CC3)c3ccccc3n2)cc1 | inconclusive [activator, partial curve, poor fit] | 
CN1C[C@@H]2C(c3ccc(C(F)(F)F)cc3)C3(c4ccc(C#N)cc4)CC2(C3)[C@H]1c1ccccc1 (some centres undefined) | inactive | 
CC1(C)C[C@H](O)[C@]2(CO)CC[C@]3(C)C(=CCC4[C@@]5(C)CC[C@H](O)C(C)(C)C5CC[C@]43C)[C@@H]2C1 (some centres undefined) | inconclusive [activator, full curve, poor fit] | 
COc1ccc(-c2c(-c3ccc(O)cc3O)n[nH]c2C)cc1OC | inconclusive [activator, single point] | 
O=C(CCCl)N1CCN(c2nc(-c3ccccc3)cs2)CC1 | inconclusive [activator, partial curve, poor fit] | 
COc1ccc(CN=C2Nc3ccccc3CS2)cc1 | inconclusive [activator, partial curve, poor fit] | 
CC(=O)c1c(C)[nH]c(C(=O)CSc2nnc(-c3ccco3)o2)c1C | inconclusive [activator, partial curve, poor fit] | 
COc1cnc(SCc2ccc(Cl)c(Cl)c2)nc1Cl | inconclusive [activator, partial curve, poor fit] | 
CC(C)(c1cc(Br)c(O)c(Br)c1)c1cc(Br)c(O)c(Br)c1 | inconclusive [activator, single point] | 
O=C(OCn1ncc(Cl)c(Cl)c1=O)c1ccc(C(F)(F)F)cc1 | active: 6.51 µM | 
CC(=O)Nc1nc(C)c(-c2csc(Nc3ccc(O)cc3)n2)s1 | active: 18.4 µM | 
S=c1[nH]nc(-c2cc(-c3ccco3)[nH]n2)n1-c1ccccc1Cl | inactive | 

SMILES | Potency | activity, positive = re-replication
Cc1ccc(/C=N/Nc2nnc(Cl)c3ccccc23)cc1 | inactive | 
O=C(COC(=O)CCN1C(=O)/C(=C\C=C\c2ccccc2)SC1=S)Nc1cc(F)ccc1F | inconclusive [activator, partial curve, poor fit] | 
CN(C)CCCNC(=O)C[C@H]1C[C@H](C(=O)N2CCOCC2)[C@@]2(CCC3CCCC3)c3[nH]c4cc(-c5ccco5)ccc4c3CCN2C1=O | inconclusive [activator, single point] | 
O=C(Nc1ccccc1)C1(c2ccccc2)CC1(Cl)Cl (centres undefined) | inconclusive [activator, partial curve, poor fit] | 
COc1ccc(CNC2CCN(Cc3ccccc3)CC2)cc1 | inconclusive [activator, single point] | 
Cc1cc(S(=O)(=O)N2CCN(c3ccc(F)cc3)CC2)ccc1-n1cnnn1 | inactive | 
CCOc1ccc(C(=O)c2cc([N+](=O)[O-])ccc2N2CCOCC2)cc1 |  | inconclusive: 68.9% [activator]
O=c1[nH][nH]c2cc([N+](=O)[O-])ccc12 | inconclusive [activator, partial curve] | 
COc1ccc(C(C(=O)NC2CCCCC2)N(Cc2cccs2)C(=O)Cc2c[nH]c3ccccc23)cc1OC (centres undefined) | inactive | 
CCOc1ccc(NC(=O)CN(C)C(=O)c2ccc3[nH]c4c(c3c2)CC(C)CC4)cc1OCC (centres undefined) | inactive | 
CCOC(=O)C1(CCCc2ccccc2)CCN(C(=O)c2cncs2)CC1 | inactive | 
c1ccc(-c2nc(N3CCN(c4ccccc4)CC3)nc(-n3ccnc3)n2)cc1 | active: 7.31 µM | 
Cn1nnnc1SCC(=O)N1c2ccccc2Sc2ccc(Cl)cc21 | inconclusive [activator, single point] | 
CN1/C(=C\C(=O)CSc2nnc(NCc3ccccc3)s2)C(C)(C)c2ccccc21 | active: 18.4 µM | 
CCC(C)(C)n1nnnc1C(c1cc2ccc(OC)cc2[nH]c1=O)N1CCN(C2CCCCC2)CC1 (centres undefined) | inconclusive [activator, partial curve, poor fit] | 
COc1ccccc1CN1CC(C(=O)N2CCC(C(=O)c3ccccc3)CC2)CCC1=O (centres undefined) | inconclusive [activator, single point] | 
O=C(CC1(O)C(=O)N(Cc2cccc3ccccc23)c2ccccc21)c1cccnc1 (centres undefined) | inconclusive [activator, single point] | 
Cc1ccc(S(=O)(=O)NCCSc2nnnn2-c2ccc(C(N)=O)cc2)cc1 | inactive | 
O=C(CCCc1ccccc1)Nc1ccccc1[N+](=O)[O-] | inconclusive [activator, single point] | 
Cc1cc(OC(F)F)ccc1NC(=O)Nc1ccc([N+](=O)[O-])cc1 | inconclusive [activator, single point] | 
O=C1OC(c2ccccc2)(c2ccc(O)cc2)c2ccccc21 (centres undefined) | inconclusive [activator, partial curve, poor fit] | 
COc1cccc(CC(=O)OCC(=O)NC(Cc2ccccc2)C(C)=O)c1 (centres undefined) | inactive | 
O=C(CCC1CCCN(C(=O)c2ccncc2)C1)NCc1ccc(F)c(F)c1 (centres undefined) | inconclusive [activator, partial curve] | 

SMILES | Potency | activity, positive = re-replication
CC1=C(C(=O)Nc2ccccc2C(=O)N2CCCCC2)SCCO1 | inactive | 
C=C1CC[C@@H]2[C@](C)(CO)[C@H](O)CC[C@@]2(C)[C@@H]1C/C=C1/C(=O)OCC1O (some centres undefined) | inconclusive [activator, partial curve, poor fit] | 
Cc1ccc([N+](=O)[O-])cc1NC(=O)CSc1n[nH]c(-c2cccnc2)n1 | inactive | 
Cc1occc1C(=O)NCc1nc(-c2ccccc2)no1 | inactive | 
CCOC(=O)c1cnc(-n2[nH]c(C)c(Cc3ccccc3)c2=O)[nH]c1=O | inconclusive [activator, single point] | 
CCCN1C(=O)/C(=C/c2ccc3c(c2)OCO3)NC1=S | inconclusive [activator, single point] | 
CCCCCCCC/C=C\CCCCCCCCN | inactive | 
Cc1ccc(C(C)C)c(OCC(=O)NN=C2CCCCCCC2)c1 | inconclusive [activator, partial curve, poor fit] | 
COc1cc(CN2CCC(CO)(CCOc3ccccc3)CC2)cc(OC)c1 | inconclusive [activator, partial curve, poor fit] | 
COc1ccc(C2Nc3cc(OC)ccc3-n3cccc32)cc1 (centres undefined) | active: 16.4 µM | 
CCOC(=O)C1=CN(Cc2cccc(F)c2)S(=O)(=O)NC1c1ccc(F)c(Cl)c1 (centres undefined) | inconclusive [activator, single point] | 
Cn1nc(C(=O)NCc2ccc(F)cc2)cc1C(=O)NCc1ccc(F)cc1 | inconclusive [activator, single point] | 
CCCCN1C(=O)CC(Sc2ccccc2C(=O)O)C1=O (centres undefined) | inconclusive [activator, single point] | 
O=c1ccsn1Cc1ccccc1 | inconclusive [activator, single point] | 
COc1cccc(CN(C)c2nc(-c3cccs3)nc3ccccc23)c1 | inconclusive [activator, single point] | 
Fc1ccccc1COc1ccccc1CNCc1ccncc1 | active: 3.26 µM | 
CCC1(C)CC(CCNS(=O)(=O)c2ccc(C)cc2)(c2ccc(C)cc2)CCO1 (centres undefined) | inconclusive [activator, partial curve, poor fit] | 
Cc1cc(Br)ccc1OCc1nnc(-c2ccccc2)o1 | inconclusive [activator, single point] | 
COc1ccc(C2=NN(C(=O)CCC(=O)O)C(c3ccccc3OC)C2)cc1 (centres undefined) | inconclusive [activator, partial curve, poor fit] | 
CC[C@H](C)[C@@H](NC(=O)O[C@@H]1C(=O)c2cc(OC)ccc2O[C@H]1c1ccc(OC)c(Br)c1)C(=O)OC | inactive | 
O=C(Nc1ccccn1)c1ccc([N+](=O)[O-])o1 | active: 9.2 µM | 
Cc1ccn2c(=O)c(C(=O)NCCCN3CCCC3=O)c(O)nc2c1 | inactive | 
O=C(/C=C/c1cn(CC(O)CN2CCCCCC2)c2ccccc12)c1cccs1 (centres undefined) | active: 14.6 µM | 
